A collection of fitness landscapes (doi:10.1016/j.celrep.2020.107928)
In all, about 81,000 sequences were measured (“one-hybrid fitness for binding NBS DNA”: median about -0.1, highest 2% from about 0.36 on). Some of the results follow.

B1: Caulobacter ParB omega fusion; a variant is named by its letters at X, in order, B8GW30 (parent)
chain: MESVVVGEPGMSEGRRGLGRGLSALLGEVDAAPAQAPGEQLGGSREAPIEILQRNPDQPRRTFREEDLEDLSNSIREKGVLQPILVRPSPDTAGEYQIVAGERAWRAAQRAGLKTVPIMVRELDDLAVLEIGIIENVQRADLNVLEEALSYKVLMEKFERTQENIAQTIGKSXSHVANXMRLLXLPDEVQSYLVSGELTAXHARAIAAAADPVALAKQIIEGGLSVRETEALARKAPNLSAGKSKGGRPPRVKDTDTQALESDLSSVLGLDVSIDHRGSTGTLTITYATLEQLDDLCNRLTRGI

Variants of: B1
Assay: one-hybrid fitness for binding NBS DNA (the Noc-binding site; scaled: cognate 1, non-cognate 0); higher = stronger binding
Details: with NBS DNA site
Summary of the method: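 Caulobacter ParB libraries with four specificity codons randomised were screened by bacterial one-hybrid selection in the E. coli USO strain, using a HIS3 reporter whose site lies 19 bp from the promoter. Selection ran for 48 hours at 37°C on M9 lacking histidine, with 0.1 mM IPTG and 5 mM 3-AT. Plasmids were Illumina-sequenced before and after selection, three replicate libraries were pooled, and variants with under 10 reads were dropped. Fitness is the log change in each variant's read ratio to wild type, rescaled against the cognate and non-cognate sites.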

one-hybrid fitness for binding NBS DNA, 0.569:
RRFA

one-hybrid fitness for binding NBS DNA, 0.23:
RRFN

one-hybrid fitness for binding NBS DNA, 0.39:
QIQR

one-hybrid fitness for binding NBS DNA, 0.358:
QGKR

one-hybrid fitness for binding NBS DNA, 0.234:
KRKG

one-hybrid fitness for binding NBS DNA, 0.686:
RLKR

one-hybrid fitness for binding NBS DNA, 0.381:
RIHS

one-hybrid fitness for binding NBS DNA, 0.437:
QKKK

one-hybrid fitness for binding NBS DNA, 0.508:
QRCY

one-hybrid fitness for binding NBS DNA, 0.399:
QQKI

one-hybrid fitness for binding NBS DNA, 0.789:
QRHT

one-hybrid fitness for binding NBS DNA, 0.216:
QYRL

one-hybrid fitness for binding NBS DNA, 0.499:
QARY

one-hybrid fitness for binding NBS DNA, ≤ 0.2:
DYNM
LAWY
YQLC
MLIN
RYNE
PHVY
EQVT
TYAY
LRAQ
SQKK
TGRG
NMMR
RSME
IDYY
FSHR
ALTC
SSHN
VHKV
QNRC
IGNG
YFVT
GPHG
ETVS
DGVN
KSLS
QHEF
GGCG
IGAY
TYNH
RFIK
AGND
PMEI
KATV
PVCI
DKRR
KKTA
RNPG
LPAH
CRWC
PNTL
RPTE
ASAH
KMRS
DHLG
HTAT
QSEF
CTDL
KWSH
LMAV
LRGE
CNWR
HAFM
ELDG
NKDW
QVQL
ELGT
PSSP
PECS
DVQT
LPDA
TGES
MLPR
RCWE
NFPA
CSKR
YRVE
AKKR
NIVP
PYVY
ELIR
ISAD
AYSY
IIGR
DGRG
RRCF
MANS
KLTK
LQQC
SNTF
WMTL
IRVA
LLWG
DTHC
TSKA
IDAR
CALV
MPCI
KAAT
MEPF
VSTS
EMER
AYWC
IHGV
TAAC
PCMY
AEIG
LRNF
LMPC
GMSW
LDYC
ALEF
KCRY
RCTG
EAPS
MHFS
GMNS
GHVQ
PAHG
VFES
RYVQ
RNVP
EYSK
QDHQ
MMVR
TDGG
VQTM
TEPR
YQHR
FMDG
WVEH
RYAW
RPEH
PHKN
AGHF
FSLR
HLLR
LTHD
GSPV
RACM
QFCF
SIPK
HTMT
ETNI
THRE
DIRC
YTED
VQSR
YIAT
MHAG
RAQC
VYAV
WLLP
ELYK
RIDW
SVRS
GTDI
TSPM
SQAV
QKSC
AHLQ
MCIS
PHEV
YPDC
ILGW
AINF
KAKN
EGTC
WFNC
PSGF
HMST
VFKT
IYEG
LIEG
YCVS
LMTY
WCLW
GMQY
AGFG
KCAV
VISV
KTTD
MVTC
RLTQ
SHMY
LPKM
PHPF
EHLC
AWTG
HAFC
RHHI
TVDF
SRNR
LAHL
LYTP
HCNR
RHTV
TGQW
KINS
QWEV
QPRL
MTIG
REPM
LNAT
NLGT
CLMS
KNST
MHLY
PGGC
KPLF
QDSF
SCNC
VCKT
PQFM
HGNR
TPFY
VMHG
ATFD
CHTD
GPTP
EAGM
EMEL
HNTS
RWMM
AACY
VQSD
LRDT
NHKY
CVYI
DRTM
IRMD
AQGE
DDMG
QYSL
FLIR
PCLL
PAHW
SFGL
DFYI
HQMC
LGPW
QEDI
NVYR
AAFT
RTDI
RNHG
PSAK
FGKK
NFML
PLYA
LTFT
NENS
QRPQ
AFNF
LRAV
SRQY
VGTI
DITA
PSAM
FRDC
TDNQ
RCPF
TTGR
RAAL
QLHP
TGFD
TNTY
LMRS
PTWH
IPGR
NHPS
AVRA
SQLT
PFPM
SCHP
HRLH
LPEP
TDAR
QEVG
CSHE
SFAR
EHQL
RWDR
SDMY
TFSF
KSSM
SNLT
NTFH
ETDG
HVQS
LGPC
MSLM
QPTD
IAMH
QSWI
YFDS
KNWD
SLDK
ECLV
KTCS
QIAW
YRPA
HHWN
RMMF
